The record followed here is PMC9911399, “Two distinct binding modes provide the RNA-binding protein RbFox with extraordinary sequence specificity”.

The labels stand for the following.
T1: RBFOX1 RRM RbFoxmut (Fox-RRM*) (Homo sapiens, UniProt Q9NWB1 109-208, R118D;E147R;N151S;E152T)
T1 sequence: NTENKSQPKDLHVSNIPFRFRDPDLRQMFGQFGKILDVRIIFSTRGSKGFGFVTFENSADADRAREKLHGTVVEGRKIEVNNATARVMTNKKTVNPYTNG

B1: CACUGUC (DNA:RNA)
RNA: GGGAGACCGGAAUUCAGAUUGUCCCACUGUCUUAAAUCCCGUCGUAGCCACCA
DNA 1: CAATCTGAATTCCGGTCTCCC
DNA 2: TGGTGGCTACGACGGGATT
B2: CUACAGG (DNA:RNA)
RNA: B1 RNA with A26U, C27A, U28C, G29A, U30G, C31G
DNA 1: CAATCTGAATTCCGGTCTCCC
DNA 2: TGGTGGCTACGACGGGATT
B3: AAGGGCC (DNA:RNA)
RNA: B1 RNA with C25A, C27G, U28G, U30C
DNA 1: CAATCTGAATTCCGGTCTCCC
DNA 2: TGGTGGCTACGACGGGATT
B4: ACUGGUC (DNA:RNA)
RNA: B1 RNA with C25A, A26C, C27U, U28G
DNA 1: CAATCTGAATTCCGGTCTCCC
DNA 2: TGGTGGCTACGACGGGATT
B5: GCGCAAA (DNA:RNA)
RNA: GGGAGACCGGAAUUCAGAUUGUCCGCGCAAAUUAAAUCCCGUCGUAGCCACCA
DNA 1: CAATCTGAATTCCGGTCTCCC
DNA 2: TGGTGGCTACGACGGGATT
B6: GAGCAGA (DNA:RNA)
RNA: B5 RNA with C26A, A30G
DNA 1: CAATCTGAATTCCGGTCTCCC
DNA 2: TGGTGGCTACGACGGGATT
B7: CAAGGGA (DNA:RNA)
RNA: B1 RNA with C27A, U28G, U30G, C31A
DNA 1: CAATCTGAATTCCGGTCTCCC
DNA 2: TGGTGGCTACGACGGGATT
B8: GAACGUA (DNA:RNA)
RNA: B1 RNA with C25G, C27A, U28C, C31A
DNA 1: CAATCTGAATTCCGGTCTCCC
DNA 2: TGGTGGCTACGACGGGATT
B9: ACGCCUA (DNA:RNA)
RNA: B5 RNA with G25A, A29C, A30U
DNA 1: CAATCTGAATTCCGGTCTCCC
DNA 2: TGGTGGCTACGACGGGATT
B10: AUACUCA (DNA:RNA)
RNA: B5 RNA with G25A, C26U, G27A, A29U, A30C
DNA 1: CAATCTGAATTCCGGTCTCCC
DNA 2: TGGTGGCTACGACGGGATT
B11: GUGUGCC (DNA:RNA)
RNA: B1 RNA with C25G, A26U, C27G, U30C
DNA 1: CAATCTGAATTCCGGTCTCCC
DNA 2: TGGTGGCTACGACGGGATT
B12: CAAGAAU (DNA:RNA)
RNA: B1 RNA with C27A, U28G, G29A, U30A, C31U
DNA 1: CAATCTGAATTCCGGTCTCCC
DNA 2: TGGTGGCTACGACGGGATT
B13: CAAUGGG (DNA:RNA)
RNA: B1 RNA with C27A, U30G, C31G
DNA 1: CAATCTGAATTCCGGTCTCCC
DNA 2: TGGTGGCTACGACGGGATT
B14: CGUAUUU (DNA:RNA)
RNA: B1 RNA with A26G, C27U, U28A, G29U, C31U
DNA 1: CAATCTGAATTCCGGTCTCCC
DNA 2: TGGTGGCTACGACGGGATT
B15: GGGAGUU (DNA:RNA)
RNA: B1 RNA with C25G, A26G, C27G, U28A, C31U
DNA 1: CAATCTGAATTCCGGTCTCCC
DNA 2: TGGTGGCTACGACGGGATT
B16: AAAAUUU (DNA:RNA)
RNA: B1 RNA with C25A, C27A, U28A, G29U, C31U
DNA 1: CAATCTGAATTCCGGTCTCCC
DNA 2: TGGTGGCTACGACGGGATT
B17: UCCGUGA (DNA:RNA)
RNA: B5 RNA with G25U, G27C, C28G, A29U, A30G
DNA 1: CAATCTGAATTCCGGTCTCCC
DNA 2: TGGTGGCTACGACGGGATT
B18: CGGCGUU (DNA:RNA)
RNA: B1 RNA with A26G, C27G, U28C, C31U
DNA 1: CAATCTGAATTCCGGTCTCCC
DNA 2: TGGTGGCTACGACGGGATT
B19: CAGGAGC (DNA:RNA)
RNA: B1 RNA with C27G, U28G, G29A, U30G
DNA 1: CAATCTGAATTCCGGTCTCCC
DNA 2: TGGTGGCTACGACGGGATT
B20: CUUUCAG (DNA:RNA)
RNA: B1 RNA with A26U, C27U, G29C, U30A, C31G
DNA 1: CAATCTGAATTCCGGTCTCCC
DNA 2: TGGTGGCTACGACGGGATT
B21: CUUCGUC (DNA:RNA)
RNA: B1 RNA with A26U, C27U, U28C
DNA 1: CAATCTGAATTCCGGTCTCCC
DNA 2: TGGTGGCTACGACGGGATT
B22: GUCGUUG (DNA:RNA)
RNA: B1 RNA with C25G, A26U, U28G, G29U, C31G
DNA 1: CAATCTGAATTCCGGTCTCCC
DNA 2: TGGTGGCTACGACGGGATT
B23: CUACAUU (DNA:RNA)
RNA: B1 RNA with A26U, C27A, U28C, G29A, C31U
DNA 1: CAATCTGAATTCCGGTCTCCC
DNA 2: TGGTGGCTACGACGGGATT
B24: UACCGAC (DNA:RNA)
RNA: B1 RNA with C25U, U28C, U30A
DNA 1: CAATCTGAATTCCGGTCTCCC
DNA 2: TGGTGGCTACGACGGGATT
B25: GUAUUUA (DNA:RNA)
RNA: B1 RNA with C25G, A26U, C27A, G29U, C31A
DNA 1: CAATCTGAATTCCGGTCTCCC
DNA 2: TGGTGGCTACGACGGGATT
B26: UACAGUA (DNA:RNA)
RNA: B1 RNA with C25U, U28A, C31A
DNA 1: CAATCTGAATTCCGGTCTCCC
DNA 2: TGGTGGCTACGACGGGATT
B27: UUGCAGG (DNA:RNA)
RNA: B5 RNA with G25U, C26U, A30G, A31G
DNA 1: CAATCTGAATTCCGGTCTCCC
DNA 2: TGGTGGCTACGACGGGATT
B28: CCGGAUU (DNA:RNA)
RNA: B5 RNA with G25C, C28G, A30U, A31U
DNA 1: CAATCTGAATTCCGGTCTCCC
DNA 2: TGGTGGCTACGACGGGATT
B29: CCAGUCA (DNA:RNA)
RNA: B5 RNA with G25C, G27A, C28G, A29U, A30C
DNA 1: CAATCTGAATTCCGGTCTCCC
DNA 2: TGGTGGCTACGACGGGATT
B30: CACCACC (DNA:RNA)
RNA: B1 RNA with U28C, G29A, U30C
DNA 1: CAATCTGAATTCCGGTCTCCC
DNA 2: TGGTGGCTACGACGGGATT
B31: GGGCCUA (DNA:RNA)
RNA: B5 RNA with C26G, A29C, A30U
DNA 1: CAATCTGAATTCCGGTCTCCC
DNA 2: TGGTGGCTACGACGGGATT

Substitutions are numbered along the chain they refer to; changes in the protein carry UniProt numbers. The list shows a part of the results.

The target of the experiment is T1, RBFOX1 RRM RbFoxmut (Fox-RRM*). In words: EMSA; HiTS-Eq, 1 nM pool, 10 min; buffer printed only for the single-RNA assays: 10 mM Tris pH 7.5, 150 mM NaCl, 3.4 mM EDTA, 0.001% NP-40, 30 C. Conditions: tags: His6 N-terminal (pET28a); label: 5' 32P. Put shortly: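 Purified RbFox RRM, wild type or mutant, was incubated for 10 min in 50 µL with 1 nM of a 5′-radiolabelled RNA pool carrying 7 randomized nucleotides, whose flanks were annealed to DNA oligonucleotides, over a series of increasing protein concentrations. Unbound RNA was resolved on 8% native PAGE, cut out, reverse-transcribed, barcoded by PCR and sequenced on an Illumina HiSeq 2500. Relative association constants were derived from changes in read counts for each RNA species versus the control reaction and normalised to the cognate motif.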
For orientation: A gel shift assay detects complexes by their altered migration in electrophoresis.
As to B1, the binding signal was 0.147 KA relative to UGCAUGU.
For the molecule B2, the binding signal was 0.0537 KA relative to UGCAUGU.
With B3, the binding signal is 0.148 KA relative to UGCAUGU.
In the case of B4, the binding signal is 0.155 KA relative to UGCAUGU.
Consider B5, for which the binding signal is 0.0886 KA relative to UGCAUGU.
For B6 the value was 0.124 KA relative to UGCAUGU; for B7, 0.0649 KA relative to UGCAUGU.
B8: the binding signal was 0.334 KA relative to UGCAUGU.
On to B9, for which the binding signal is 0.0873 KA relative to UGCAUGU.
Turning to B10, the binding signal was 0.109 KA relative to UGCAUGU.
In the case of B11, the binding signal was 0.22 KA relative to UGCAUGU.
Take B12: the binding signal was 0.078 KA relative to UGCAUGU.
Take B13: the binding signal was 0.0555 KA relative to UGCAUGU.
For B14, the binding signal is 0.111 KA relative to UGCAUGU.
For B15 the value was 0.09 KA relative to UGCAUGU; for B16, 0.0695 KA relative to UGCAUGU; for B17, 0.0773 KA relative to UGCAUGU.
Next, B18: 0.0865 KA relative to UGCAUGU; B19: 0.0997 KA relative to UGCAUGU; B20: 0.107 KA relative to UGCAUGU.
For B21 the value was 0.124 KA relative to UGCAUGU; for B22, 0.167 KA relative to UGCAUGU.
For the molecule B23, the binding signal is 0.0434 KA relative to UGCAUGU.
As to B24, the binding signal is 0.0696 KA relative to UGCAUGU.
Next, B25: 0.142 KA relative to UGCAUGU; B26: 0.0917 KA relative to UGCAUGU; B27: 0.129 KA relative to UGCAUGU.
For B28 the value was 0.0781 KA relative to UGCAUGU.
For B29, the binding signal is 0.0567 KA relative to UGCAUGU.
On to B30, for which the binding signal is 0.0571 KA relative to UGCAUGU.
In the case of B31, the binding signal was 0.0793 KA relative to UGCAUGU.
